# Test results taken from PubChem BioAssay AID588342 (National Center for Advancing Translational Sciences (NCATS), 2011).
# About 25,000 (6.9%) of roughly 360,000 compounds were called active. The inconclusive results got no clear call from the source; some entries with a clear call stand among them for comparison. The call rests on the fitted dose curve; in most records, active means well fitted inhibition curve with a large enough effect; inconclusive means small, poorly fitted or top-dose-only effect; inactive means flat fitted curve, though single readings scatter. Potencies beside an inconclusive call are fits to weak or partial responses and may not hold up.
# Target: Luciferin 4-monooxygenase (Photinus pyralis) (UniProt P08659)
# UniProt P08659, sequence (P08659 whole entry, looked up): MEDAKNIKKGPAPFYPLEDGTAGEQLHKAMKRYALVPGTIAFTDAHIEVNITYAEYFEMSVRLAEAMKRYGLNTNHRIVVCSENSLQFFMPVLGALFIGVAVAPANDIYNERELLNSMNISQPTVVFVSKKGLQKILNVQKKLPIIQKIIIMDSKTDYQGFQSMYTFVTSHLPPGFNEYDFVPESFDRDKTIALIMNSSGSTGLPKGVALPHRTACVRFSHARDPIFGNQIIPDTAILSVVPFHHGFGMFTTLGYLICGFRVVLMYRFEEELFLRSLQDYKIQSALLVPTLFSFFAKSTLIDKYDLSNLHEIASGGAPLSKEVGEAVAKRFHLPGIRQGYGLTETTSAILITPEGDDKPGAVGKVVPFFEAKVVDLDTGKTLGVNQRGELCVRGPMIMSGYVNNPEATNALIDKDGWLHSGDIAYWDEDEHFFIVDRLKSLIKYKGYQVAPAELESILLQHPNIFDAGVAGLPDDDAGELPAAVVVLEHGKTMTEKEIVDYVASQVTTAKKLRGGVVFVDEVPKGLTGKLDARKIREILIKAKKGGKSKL
# Test: qHTS profiling assay for firefly luciferase inhibitor/activator using purifed enzyme and Km concentrations of substrates (counterscreen for miR-21 project); further: nearly all actives have a fitted effect of over 55% in size
# Details: purified FLuc, luminescence inhibition; series mostly up to 57.5 µM
# Procedure, shortened: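 Biochemical qHTS of compounds, final roughly 60 µM downward over six points, against 10 nM purified firefly luciferase using Km concentrations of substrates (10 uM D-luciferin, 10 uM ATP) in Tris acetate pH 7.5 buffer; luminescence output.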
# Potency means the concentration at half of the fitted maximal effect; tags describe the fitted curve by direction and shape.
row,Compound,Potency
1,CCCc1nnc(NC(=O)CSc2nc3ccccc3[nH]2)s1,"inconclusive: 15.1 µM [inhibitor, partial curve]"
2,O=C(O)COCC(=O)Nc1ccc2c(c1)oc1ccccc12,active: 16.9 µM
3,CCOc1ccc(-n2cc(C(=O)c3cc(Cl)ccc3O)cc(C#N)c2=O)cc1,"inconclusive: 8.49 µM [inhibitor, partial curve]"
4,O=C(Nc1ccc(Br)cc1F)c1cccnc1,"inconclusive: 21.3 µM [inhibitor, partial curve, poor fit]"
5,O=C(Nc1ccccc1N1CCN(C(=O)c2ccccc2)CC1)c1ccccc1Cl,inactive
6,Cc1ccc(NC(=O)C2CCN(C(=O)c3cnn(-c4ccccc4)c3-n3cccc3)CC2)cc1,inactive
7,Cc1nc2cc(NC(=O)NC(C)(C)C)ccc2n1C,"inconclusive: 12 µM [inhibitor, partial curve]"
8,COc1ccc(C(=O)Nc2cc(C)ccc2NC(=O)COc2ccccc2)cc1,"inconclusive: 19 µM [inhibitor, partial curve]"
9,CSc1cccc(NC(=O)c2cnccn2)c1,"inconclusive: 26.9 µM [inhibitor, single point]"
10,CC1CCN(S(=O)(=O)c2ccc3c(ccn3CC(=O)NCc3ccc(N(C)C)cc3)c2)CC1,inactive
11,CC(C)c1ccc(S(=O)(=O)c2nnn3c2nc(N2CCOCC2)c2sccc23)cc1,inactive
12,CCSc1ncc(/C=N/Nc2ccc(Cl)cc2)n1C,active: 3.01 µM
13,Cc1cccc(/C=N\Nc2cn[nH]c(=O)c2Cl)c1,"inconclusive: 23.9 µM [inhibitor, partial curve]"
14,Cc1ccc(CSC2=Nc3ccccc3C3=NC(CC(=O)NCc4ccco4)C(=O)N23)cc1 (stereo unspecified),"inconclusive: 23.9 µM [inhibitor, partial curve]"
15,COc1cccc(/C=N/NC(=O)CSc2nnc(C)n2-c2ccccc2)c1O,active: 16.9 µM
16,O=C(O)c1ccc(NCc2ccc(Br)cc2)cc1,"inconclusive: 26.9 µM [inhibitor, single point]"
17,Brc1ccc(-n2cnc(-c3ccccc3)c2)cc1,active: 0.953 µM
18,O=C(/C=C/c1ccccc1)N1CCN(Cc2cc(=O)n3nc(-c4ccccc4Cl)sc3n2)CC1,inactive
19,COc1cc(OC)c(NC(=O)c2cn(C)c(=O)c3cc(OC)c(OC)cc23)cc1Cl,inactive
20,Cc1ccc(Cn2c(C)c3cnn(CC(=O)N4CCN(c5ccc(F)cc5)CC4)c(=O)c3c2C)cc1,"inconclusive: 9.53 µM [inhibitor, partial curve, poor fit]"
21,Cc1c([N+](=O)[O-])cc(S(=O)(=O)Nc2ccc(-c3ccc(N4CCCC4)nn3)cc2)cc1[N+](=O)[O-],active: 19 µM
